Source: PMC5241739, “Structure of the Toll/Interleukin-1 Receptor (TIR) Domain of the B-cell Adaptor That Links Phosphoinositide Metabolism with the Negative Regulation of the Toll-like Receptor (TLR) Signalosome*^([image sbox.jpg])” (The Journal of Biological Chemistry, 2016)
Like-named read-outs stand apart in the source and are kept apart here. Results are given in words; binding and its absence hold for the method and conditions named. For part of these data: In cells and extracts the contact can be indirect. Some entries that bind do so weakly or less than the wild type. For part of these data: Tags and fused reporters may be left off the sequences shown. Each block holds one molecule with its values, some of them ahead of it.

By UniProt entry, the sequences of proteins in these tests, tags left out.
UniProt P58753: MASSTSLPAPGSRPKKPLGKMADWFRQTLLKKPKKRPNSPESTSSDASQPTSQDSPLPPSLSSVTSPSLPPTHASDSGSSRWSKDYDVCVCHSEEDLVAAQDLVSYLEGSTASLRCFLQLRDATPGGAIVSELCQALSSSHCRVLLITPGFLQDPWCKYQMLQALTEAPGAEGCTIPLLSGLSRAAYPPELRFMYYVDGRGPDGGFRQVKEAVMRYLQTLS
UniProt Q99836: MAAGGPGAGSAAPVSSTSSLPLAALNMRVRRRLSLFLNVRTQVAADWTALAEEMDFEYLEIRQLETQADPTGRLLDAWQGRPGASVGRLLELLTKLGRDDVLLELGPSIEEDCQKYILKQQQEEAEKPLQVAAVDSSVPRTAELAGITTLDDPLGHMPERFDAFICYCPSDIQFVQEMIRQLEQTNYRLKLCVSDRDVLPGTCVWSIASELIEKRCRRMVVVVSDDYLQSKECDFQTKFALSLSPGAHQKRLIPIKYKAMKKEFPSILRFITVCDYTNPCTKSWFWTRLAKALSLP
UniProt Q86XR7: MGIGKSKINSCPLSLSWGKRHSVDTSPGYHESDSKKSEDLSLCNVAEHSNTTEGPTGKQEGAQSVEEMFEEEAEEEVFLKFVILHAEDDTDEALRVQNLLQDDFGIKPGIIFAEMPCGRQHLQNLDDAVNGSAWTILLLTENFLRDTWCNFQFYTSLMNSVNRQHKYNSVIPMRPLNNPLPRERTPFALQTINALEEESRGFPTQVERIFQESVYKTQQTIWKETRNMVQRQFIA

What was measured:
[1] = biological target: T1, FLAG-BCAP-FL (human) (UniProt Q6ZUJ8); assay: co-IP; HEK 293T cells transfected 24 h, lysate precipitated with anti-FLAG M2 beads 2 h at 4 °C, Western blot for the tags; with or without co-expressed Syk, Lyn or PLCγ2
T1 sequence: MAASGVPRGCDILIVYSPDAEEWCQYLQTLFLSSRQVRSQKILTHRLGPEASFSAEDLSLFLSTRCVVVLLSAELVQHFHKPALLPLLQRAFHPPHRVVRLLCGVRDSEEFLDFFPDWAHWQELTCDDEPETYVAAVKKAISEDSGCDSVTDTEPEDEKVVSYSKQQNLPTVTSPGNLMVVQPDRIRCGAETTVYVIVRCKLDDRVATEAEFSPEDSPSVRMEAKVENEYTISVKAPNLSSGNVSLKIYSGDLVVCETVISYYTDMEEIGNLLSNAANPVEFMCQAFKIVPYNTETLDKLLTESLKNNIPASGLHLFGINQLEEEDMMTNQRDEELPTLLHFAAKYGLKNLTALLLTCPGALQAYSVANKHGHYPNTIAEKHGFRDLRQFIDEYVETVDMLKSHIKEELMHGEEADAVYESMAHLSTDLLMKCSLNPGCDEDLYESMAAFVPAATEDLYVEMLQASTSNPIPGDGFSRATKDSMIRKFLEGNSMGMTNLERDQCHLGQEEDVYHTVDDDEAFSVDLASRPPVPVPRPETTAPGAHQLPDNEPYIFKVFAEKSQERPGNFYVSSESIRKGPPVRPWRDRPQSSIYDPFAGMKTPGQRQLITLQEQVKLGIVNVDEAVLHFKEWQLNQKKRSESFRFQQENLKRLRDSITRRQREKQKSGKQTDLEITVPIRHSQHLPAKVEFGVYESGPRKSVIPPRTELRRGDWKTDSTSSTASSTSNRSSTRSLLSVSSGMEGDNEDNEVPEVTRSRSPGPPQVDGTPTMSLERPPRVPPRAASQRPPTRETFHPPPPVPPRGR

[2] = biological target: TIRAP-FLAG (human) (UniProt P58753); assay: as above
[3] = biological target: T1, FLAG-BCAP-FL (human); assay: as above; remark: listed apart in the source
[4] = biological target: T2, FLAG-SARM (UniProt Q6SZW1); assay: as above
T2 sequence: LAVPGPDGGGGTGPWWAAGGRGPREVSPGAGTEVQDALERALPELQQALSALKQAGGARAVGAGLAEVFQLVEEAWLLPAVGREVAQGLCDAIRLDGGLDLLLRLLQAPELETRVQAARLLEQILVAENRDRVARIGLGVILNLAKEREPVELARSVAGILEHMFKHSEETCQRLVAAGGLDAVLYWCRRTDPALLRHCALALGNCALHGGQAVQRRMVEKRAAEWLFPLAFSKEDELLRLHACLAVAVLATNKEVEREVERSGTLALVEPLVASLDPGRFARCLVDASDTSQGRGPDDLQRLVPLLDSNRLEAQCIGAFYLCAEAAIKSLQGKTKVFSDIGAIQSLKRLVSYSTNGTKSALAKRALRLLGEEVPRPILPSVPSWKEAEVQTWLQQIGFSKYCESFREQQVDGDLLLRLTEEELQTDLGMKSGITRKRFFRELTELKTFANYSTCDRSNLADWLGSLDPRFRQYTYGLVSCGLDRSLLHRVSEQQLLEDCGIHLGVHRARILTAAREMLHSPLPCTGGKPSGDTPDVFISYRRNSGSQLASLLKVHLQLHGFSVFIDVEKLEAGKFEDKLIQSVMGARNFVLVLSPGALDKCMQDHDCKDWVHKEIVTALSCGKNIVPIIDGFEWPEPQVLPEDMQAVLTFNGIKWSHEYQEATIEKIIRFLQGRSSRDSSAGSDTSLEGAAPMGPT

[5] = biological target: MyD88-FLAG (UniProt Q99836); assay: as above
[6] = biological target: N-terminal domain of human BCAP comprising residues 7–142 (human) (UniProt Q6ZUJ8); assay: SEC-MALS; Superdex 200 Increase 10/300, 50 μl injected; 4, 2 and 0.8 mg/ml for the TIR, BCAP330 and BCAPL; both purified
[7] = biological target: N-terminal domain of human BCAP comprising residues 7–142 (human) (UniProt Q6ZUJ8); assay: AUC; sedimentation velocity, Beckman XL-A, 0.3 to 1 mg/ml, 30,000–40,000 rpm, c(S) and c(M) analysis with SEDFIT; both purified
[8] = biological target: N-terminal domain of human BCAP comprising residues 7–142, lysine residues dimethylated (as crystallised) (human) (UniProt Q6ZUJ8); assay: crystal structure; lysine-dimethylated BCAP 7-142, sitting drop at 20 °C, 2.5 Å; a single molecule in the asymmetric unit; both purified

Molecule: Myc-TRAM (from UniProt Q86XR7 1-235)
binding [1]: no binding

Molecule: Myc-MyD88-WT (from UniProt Q99836 1-296)
binding [1]: binds

Further lines, results first:

binding [2]: binds
binding [3]: binds
binding [4]: no binding
binding [5]: binds
B1: human PLCγ2 (PLCγ2-V5) (enzyme, UniProt P16885 1-1265)
chain: MSTTVNVDSLAEYEKSQIKRALELGTVMTVFSFRKSTPERRTVQVIMETRQVAWSKTADKIEGFLDIMEIKEIRPGKNSKDFERAKAVRQKEDCCFTILYGTQFVLSTLSLAADSKEDAVNWLSGLKILHQEAMNASTPTIIESWLRKQIYSVDQTRRNSISLRELKTILPLINFKVSSAKFLKDKFVEIGAHKDELSFEQFHLFYKKLMFEQQKSILDEFKKDSSVFILGNTDRPDASAVYLHDFQRFLIHEQQEHWAQDLNKVRERMTKFIDDTMRETAEPFLFVDEFLTYLFSRENSIWDEKYDAVDMQDMNNPLSHYWISSSHNTYLTGDQLRSESSPEAYIRCLRMGCRCIELDCWDGPDGKPVIYHGWTRTTKIKFDDVVQAIKDHAFVTSSFPVILSIEEHCSVEQQRHMAKAFKEVFGDLLLTKPTEASADQLPSPSQLREKIIIKHKKLGPRGDVDVNMEDKKDEHKQQGELYMWDSIDQKWTRHYCAIADAKLSFSDDIEQTMEEEVPQDIPPTELHFGEKWFHKKVEKRTSAEKLLQEYCMETGGKDGTFLVRESETFPNDYTLSFWRSGRVQHCRIRSTMEGGTLKYYLTDNLTFSSIYALIQHYRETHLRCAEFELRLTDPVPNPNPHESKPWYYDSLSRGEAEDMLMRIPRDGAFLIRKREGSDSYAITFRARGKVKHCRINRDGRHFVLGTSAYFESLVELVSYYEKHSLYRKMRLRYPVTPELLERYNMERDINSLYDVSRMYVDPSEINPSMPQRTVKALYDYKAKRSDELSFCRGALIHNVSKEPGGWWKGDYGTRIQQYFPSNYVEDISTADFEELEKQIIEDNPLGSLCRGILDLNTYNVVKAPQGKNQKSFVFILEPKQQGDPPVEFATDRVEELFEWFQSIREITWKIDTKENNMKYWEKNQSIAIELSDLVVYCKPTSKTKDNLENPDFREIRSFVETKADSIIRQKPVDLLKYNQKGLTRVYPKGQRVDSSNYDPFRLWLCGSQMVALNFQTADKYMQMNHALFSLNGRTGYVLQPESMRTEKYDPMPPESQRKILMTLTVKVLGARHLPKLGRSIACPFVEVEICGAEYDNNKFKTTVVNDNGLSPIWAPTQEKVTFEIYDPNLAFLRFVVYEEDMFSDPNFLAHATYPIKAVKSGFRSVPLKNGYSEDIELASLLVFCEMRPVLESEEELYSSCRQLRRRQEELNNQLFLYDTHQNLRNANRDALVKEFSVNENQLQLYQEKCNKRLREKRVSNSKFYS

binding [6]: no binding (tested: 4 mg/ml)
binding [7]: no binding (tested: 0.3 to 1 mg/ml)
B2: N-terminal domain of human BCAP comprising residues 7–142 (domain or fragment, UniProt Q6ZUJ8 7-142)
chain: PRGCDILIVYSPDAEEWCQYLQTLFLSSRQVRSQKILTHRLGPEASFSAEDLSLFLSTRCVVVLLSAELVQHFHKPALLPLLQRAFHPPHRVVRLLCGVRDSEEFLDFFPDWAHWQELTCDDEPETYVAAVKKAIS

binding [8]: no binding
B3: N-terminal domain of human BCAP comprising residues 7–142, lysine residues dimethylated (as crystallised) (domain or fragment, UniProt Q6ZUJ8 7-142)
chain: B2 chain
modifications: lysine residues dimethylated
